Experiment [1] has as its system COLO 205 tumour cells xenografted into nude mice. Kind of experiment: In vivo COLO 205 xenograft study. Also on record: species or system athymic NMRI nude mice. As to the method:
Female athymic NMRI nude mice, 6-8 weeks old, are inoculated subcutaneously in the right flank with the COLO 205 human colon tumour-derived cell line (ATCC #CCL-222) (5×10^6 in 100 μl Ringer solution). Tumour cell growth is assessed by measuring tumour volume three times per week using calipers and the formula: π/6× larger diameter×(smaller diameter)^2. Treatment is administered intravenously to groups of ten mice and commenced when tumours have developed to a size of between 130 to 270 mm^3. The treatment schedule consists of two times weekly intravenous infusions of vehicle and antibody 40186 at a dose of 25 mg/kg for two treatment cycles. In combinations of antibody with 5FU, a dose of 50 mg/kg 5FU is administered weekly. The study is terminated when tumours reached an average size of 1500 mm^3. All animal experiments are performed according to the legal requirements in Austria as well as guidelines of the American Association for Laboratory Animal Science (AALAS).

Experiment [2] concerns the target T1, biotinylated-IGF-1 binding to coated insulin-like growth factor-1 receptor (Homo sapiens, UniProt P05019).
T1 construct: Insulin-like growth factor-1 (IGF-1; a 70 amino-acid polypeptide); purchased R&D Systems (IGF-1R)
The experiment in a line: ELISA neutralization of biotinylated IGF-1 binding to coated IGF-1R. The method, then:
To identify IGF antibodies that neutralize the ability of IGF-1 and IGF-2 to bind to the IGF-1R, an ELISA is established by coating plates with 1.5 μg/ml recombinant human IGF-1R (R&D Systems) which allows the binding of biotinylated IGF-1 and biotinylated IGF-2. Bound IGF-1 or IGF-2 is detected using alkaline phosphatase-conjugated streptavidin (1:10,000 dilution) (Roche). The neutralization potency of antibody Fab fragments is measured by adding 0.1-1 μg/ml of Fab to the wells coated with IGF-1R just prior to the addition of biotinylated IGF-1 or IGF-2 ligands. Antibody Fab fragments that block the binding of biotinylated ligand are identified by a reduction in fluorometric signal.
(In an ELISA, binding on a coated surface is turned into a signal by an enzyme label.)

These results are taken from patent US8580254B2, “Anti-IGF antibodies” (Boehringer Ingelheim International GmbH, priority 2007, dated 2013).

B1: antibody 40186: fully human IgG1/Igλ antibody binding IGF-1 and IGF-2; heavy chain SEQ ID NO:25, light chain SEQ ID NO:26 (antibody, listed as Homo sapiens)
heavy: QVELVESGGGLVQPGGSLRLSCAASGFTFSNYWMHWVRQAPGKGLEWVSGISGWSSWTYYADSVKGRFTISRDNSKNTLYLQMNSLRAEDTAVYYCARFGIDAYTKVYFDYWGQGTLVTVSS[in this place human IgG1 constant region]
light: DIELTQPPSVSVAPGQTARISCSGDNIPLKYVSWYQQKPGQAPVLVIHDDNKRPSGIPERFSGSNSGNTATLTISGTQAEDEADYYCQSWASTGVVFGGGTKLTVLGQPKAAPSVTLFPPSSEELQANKATLVCLISDFYPGAVTVAWKGDSSPVKAGVETTTPSKQSNNKYAASSYLSLTPEQWKSHRSYSCQVTHEGSTVEKTVAPTECS
Take B1: the “decrease in median tumour growth” value in experiment [1] (25 mg/kg 40186 in combination with 50 mg/kg 5FU once weekly, FIG. 7) was 60%. Also, the “decrease in median tumour growth compared with vehicle” value in experiment [1] (25 mg/kg antibody twice per week i.v., nude mice, FIG. 6) is listed as 45%. Further, the “IC50, inhibition of IGF-1 ligand binding to IGF-1R” value in experiment [2] (FIG. 2) is on record as “approximately 5 ng/ml”. Besides, in experiment [2] (FIG. 2, read-out: IC50, inhibition of IGF-1 ligand binding to IGF-1R), the 50% inhibitory concentration (IC50) was around 0.03 nM.

Broadly, the IC50 is the midpoint of a concentration-inhibition curve.
